Laboratory results reported in PubChem BioAssay AID1963576 (National Center for Advancing Translational Sciences (NCATS), 2024).
About 60 (0.1%) of roughly 46,000 compounds were called active. About 3% were inconclusive and are not listed. The call rests on the fitted dose curve; in most records, active means well fitted inhibition curve with a large enough effect; inconclusive means small, poorly fitted or top-dose-only effect; inactive means no such curve, though single readings can be large or run the other way. This is one part of the list.

Assay: Primary qHTS assay for Inhibitors of ovarian cancer metastasis using an organotypic tumor microenvironment (TME) model. Further: nearly all actives have a fitted effect of over 65% in size.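 On activity change, negative = inhibition: plate controls were DMSO wells for no effect and tomatine positive control wells for full effect.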
Details: SKOV3ip1-GFP adhesion/invasion on 3D omental model, fluorescence; series mostly up to 45.8 µM; activity change, negative = inhibition: at the top concentration
In short: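 Adhesion/invasion was scored as fixed GFP-labeled SKOV3ip1 cell counts (488/509 nm), normalized to DMSO and tomatine controls. Cancer cells in serum-free medium, with four compound doses (0.36-46 umol/L), sat 2 hr at RT then 16 hr at 37 C on a 48 hr fibroblast/mesothelial/ECM culture.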

Activity change, negative = inhibition, inactive:
Cc1ccc(CSc2cn(CC(=O)N3CCCCC3)c3ccccc23)cc1 -60.8%
Cc1ccc2nc(N(Cc3cccnc3)C(=O)C3COc4ccccc4O3)sc2c1 (configuration not stated) 5.01%
CC(=O)Nc1cccc(C(=O)NCc2ccc3c(c2)CCN3C(C)=O)c1 -1.34%
CC(=O)c1[nH]c(C)c(C(=O)NCCc2ccc(C)cc2)c1C 0.247%
Cc1ccc(C2=Nc3ccccc3N(CC(=O)Nc3cccc(F)c3)C(=O)C2)cc1C -7.45%
CCn1cc(C(=O)NCCc2ccccc2)c(=O)c2cc(S(=O)(=O)N(C)C3CCCCC3)ccc21 -20.8%
Cc1cc(C)c(NC(=O)CSc2nccn2Cc2ccco2)c(C)c1 4.29%
CCOc1ccccc1N(C)C(=O)C1CCCN(c2ncnc3onc(-c4ccc(F)cc4)c23)C1 (configuration not stated) 4.63%
O=c1oc2c3c(ccc2c2ccccc12)OCN(Cc1cccc(Cl)c1)C3 -4.51%
Cc1ccc(NC(=O)CCCn2c(=O)c3cccn3c3cccnc32)c(Cl)c1 -15.9%
CN(C)CCCNc1oc(/C=C/c2ccc(F)cc2)nc1C#N -8.54%
O=C(c1ccc2c(c1)OCCO2)N(Cc1cccnc1)c1nc2ccc(F)cc2s1 8.37%
O=c1[nH]c(SCc2ccc(F)cc2)nc2c1CCCC2 0.478%
O=C(Cn1cc(SCc2cccc(Cl)c2)c2ccccc21)N1CCOCC1 -22.5%
CC1CN(C(=O)N2CCC(C(=O)NC3CCCCCC3)CC2)c2cc(Cl)ccc2O1 (configuration not stated) 2.64%
Cc1cc(C)n2nc(CNS(=O)(=O)c3ccc(Cl)cc3)nc2n1 1.71%
COc1ccccc1N1CCN(S(=O)(=O)c2ccc(F)c(C(=O)Nc3ccc(C)c(F)c3)c2)CC1 -1.31%
COc1ccc(CNC(=O)C2CCCN(S(=O)(=O)c3ccc4c(c3)CCCN4C(C)=O)C2)cc1 (configuration not stated) 7.81%
CCc1nnc2c(NCc3ccc(F)cc3)nc3ccccc3n12 -0.113%
CCC(=O)N1CCc2cc(Br)cc(S(=O)(=O)N3CCN(c4ccccc4)CC3)c21 -9.54%
COc1ccc(NC(=O)c2ccco2)cc1NC(=O)COc1cc(C)cc(C)c1 3.42%
CCOc1ccc(-c2n[nH]c3c2C(c2ccccc2OC)N(c2ccc(Br)cc2)C3=O)cc1 (configuration not stated) 10.3%
Cc1ccc(C(C)C)c(OCCn2cc(C(=O)c3ccco3)c3ccccc32)c1 -14.9%
COc1ccccc1N1CCN(C(=O)c2oc3ccccc3c2NC(=O)C(C)Oc2ccccc2)CC1 (configuration not stated) 7.82%
COc1ccc2c(c1)CC(C(=O)N1CCC(C(N)=O)CC1)CO2 (configuration not stated) -2.87%
COc1ccc(CCNC(=O)c2cc(Sc3cccc(Cl)c3)nc3ccccc23)cc1OC 8.3%
COc1ccc2c(c1)NC(c1ccc(OCC(C)C)cc1)=NC(c1ccncc1)=N2 2.3%
CCN(CC)c1ccc(NS(=O)(=O)c2ccc3c(c2)CCCN3C(C)=O)c(C)c1 16.9%
COC(=O)c1cc2oc(C)cc2n1Cc1c(C)cc(C)cc1C -0.817%
CN1C(C(=O)Nc2ccc(OC(F)(F)F)cc2)=CC(c2ccc3c(c2)OCO3)=NS1(=O)=O -1.1%
COc1cc2c(=O)n(Cc3ccccc3)c(=O)n(CC(=O)Nc3cc(C(F)(F)F)ccc3Cl)c2cc1OC -5.63%
O=C(CSc1ncc2c(n1)-c1ccccc1N(Cc1ccc(F)cc1)S2(=O)=O)c1ccc(Br)cc1 -5.3%
Cc1ccc(NC(=O)C(=O)NCC(c2ccc3c(c2)OCO3)N2CCOCC2)c(C)c1 (configuration not stated) 4.5%
Cc1ccc(OC(=O)c2snnc2C)cc1C 2.45%
CCOC(=O)c1c(C)oc2ncnc(NCCc3ccccc3)c12 -8.27%
CCc1ccc(N2CCn3c2nc2c3c(=O)n(Cc3cccc(C)c3)c(=O)n2C)cc1 -6.9%
CCc1ccc(Nc2cc(C)nc3nc(Cc4ccc(Cl)cc4)nn23)cc1 -5.74%
COc1ccc(OCC(=O)Nc2cc(-c3cccc(Cl)c3)nn2-c2ccccc2)cc1 -0.245%
Cc1cccc(NC(=O)CSc2nc3ccc(NC(=O)c4cccs4)cc3s2)c1 0.637%
CC(C)c1ccc(OCc2cc(=O)n3c4c(sc3n2)CCCC4)cc1 -1.23%
COc1ccc(-c2oc3ncn4nc(-c5ccc(Cl)cc5)nc4c3c2-c2ccc(OC)cc2)cc1 0.836%
COc1cc2c(cc1OC)C(c1ccc(Cl)cc1)N(c1ccc(C)c(F)c1)C(=O)C2 (configuration not stated) 7.98%
CCN(CC)CCN(C(=O)c1ccco1)c1nc2c(C)cccc2s1 3.23%
N#Cc1ccc(C(=O)N2CCN(c3nc4ccc(F)cc4s3)CC2)cc1 16.9%
O=C(NC1CCCCC1)c1ccc2c(c1)sc1nc(-c3ccccc3)cn12 11%
COc1ccccc1NC(=O)CN(c1ccc(C(C)C)cc1)S(=O)(=O)c1c(C)noc1C -0.395%
O=C(Nc1cccc(C(F)(F)F)c1)c1cc(CN2CCOCC2)on1 -13.9%
COc1ccccc1S(=O)(=O)Cc1ccc(C(=O)NCc2ccc(Cl)cc2)o1 1.25%
Cc1ccc(N2CCN(S(=O)(=O)c3cccc4ccccc34)CC2)cc1Cl -13.8%
COc1ccc(-n2ncc3c(NC4CCCC4)ncnc32)cc1 -0.163%
CCN(CCCNC(=O)c1nn(-c2ccc(OC)cc2)c(=O)c2c1c1ccccc1n2C)c1ccccc1 3.5%
COC(=O)c1ccc(NC(=O)CCn2cnnn2)cc1 5.6%
O=C(Nc1ccccc1F)c1ccc2c(Cl)c3c(nc2c1)CCC3 -16.1%
CCCNc1ccc(-c2nc(-c3ccccn3)no2)cc1[N+](=O)[O-] -3.65%
CCCCNC(=O)c1ccc2c(c1)ncn2-c1cc(OC)ccc1OC -12.3%
CC(=O)c1c(C)oc2c1cc(NS(=O)(=O)c1ccc(Br)cc1)c1ccccc12 -0.0923%
COC(=O)c1ccc(NC(=O)c2nc(-c3ccc(Cl)cc3)n3c2CCCCC3)cc1 -17.1%
CCOC(=O)N1CCc2c(sc3c2c(=O)n(CCc2ccccc2)c(=O)n3CC(=O)Nc2ccc(C)cc2)C1 0.43%
O=C(CSc1nccn1-c1ccc(Cl)cc1)Nc1ccc(Cl)c(Cl)c1 1.23%
COc1cc(NC(=O)N2c3ccccc3Sc3ccccc32)cc(OC)c1 2.62%
CCC(C)NC(=O)Cn1c(=O)n(CCCCCC(=O)NCc2ccccc2Cl)c(=O)c2sccc21 (configuration not stated) 8.79%
O=C1C(c2ccc(F)cc2)N(CCc2ccc(Cl)cc2)C(=O)CN1C1CCCCCC1 (configuration not stated) -8.16%
CC(C)(C)CC(=O)NCC(c1ccc2c(c1)OCO2)N1CCN(c2ccccc2)CC1 (configuration not stated) 1.13%
CCCOC(=O)c1c(NC(=O)C(C)Sc2nc(-c3ccccc3)cc(C(F)(F)F)n2)sc(C(=O)N(C)C)c1C (configuration not stated) 12.4%
CCOC(=O)c1ccc(NC(=O)CSc2ccc3ccccc3n2)cc1 -1.57%
CCCN(CCC)CCCNC(=O)c1cc2c(-c3ccc(OC)c(OC)c3)nn(C)c2s1 10.8%
C=CCNC1=C2C[C@@H](C)C[C@H](OC)[C@@H](O)[C@@H](C)C=C(C)[C@H](OC(N)=O)[C@@H](OC)C=CC=C(C)C(=O)NC(=CC1=O)C2=O 11.5%
COc1cc(NC(=O)CCc2c(C)nn(-c3ccc4nnc(C)n4n3)c2C)cc(OC)c1OC -4.55%
CCOc1ccc(S(=O)(=O)c2c(C(=O)c3ccc(CC)cc3)cnc3ccc(C)cc23)cc1 1.27%
O=C1CC(c2nc(-c3ccc(Cl)cc3)no2)CN1c1ccc2c(c1)OCCO2 (configuration not stated) -1.32%

outcome, inactive:
COc1ccc(-c2noc(-c3ccc(NCc4ccccc4OC)c([N+](=O)[O-])c3)n2)cc1
O=C(CN1CCN(Cc2ccc(Cl)cc2)C1=O)NCc1ccc(F)cc1
Cc1c(CCNC(=O)Cc2ccccc2)sc2nc(-c3ccc(F)cc3)nn12
CCN(CC)CCCNC(=O)c1cc(-c2ccc(OC)c(OC)c2)on1
Cc1ccc(NC(=O)Cn2c(=O)n(Cc3ccco3)c(=O)c3ccccc32)cc1
CCOc1ccc(CNC(=O)c2cc3c(=O)n(C)c4ccccc4c3s2)cc1
COc1cc(C(=O)NC2CC(=O)N(c3cccc(F)c3)C2)cc(OC)c1OC (configuration not stated)
COc1ccc(-c2ccnc3c(-c4ccc(F)cc4)c(C)nn23)cc1OC
Cc1ccc(NC(=O)C2CCCN2S(=O)(=O)c2cccc3cccnc23)cc1 (configuration not stated)
CCOc1ccc2nc(N3CCCC(C(=O)Nc4ccc(Br)c(C)c4)C3)sc2c1 (configuration not stated)
O=C(Nc1cc(Cl)cc(Cl)c1)c1ccc(F)c(S(=O)(=O)N2CCCCCC2)c1
O=C(Cn1cccc1C(=O)c1ccccc1)NCc1ccc(F)cc1
CCCN1CCN(CCNC(=O)Nc2cc(OC)cc(OC)c2)CC1
COc1ccc(C2c3c(n(C)c4ccccc34)C(=O)N2CC(=O)Nc2ccc(Cl)cc2)cc1 (configuration not stated)
CCOC(=O)c1ccc(CSc2nnc3cc(C)c4ccccc4n23)cc1
Cc1ccc(-n2nnnc2CNC(=O)c2cc(C(F)(F)F)cc(C(F)(F)F)c2)cc1C
COc1cccc(CNC(=O)COc2cc(=O)n(C)c3ccccc23)c1
COc1ccc(S(=O)(=O)Nc2ccc(-c3cn4c(C)csc4n3)cc2)cc1
Cc1c(Cl)cccc1-n1ncc(C(=O)Nc2ccc(Br)cc2F)c1C1CCNCC1
COc1ccccc1NC(=O)C1=C(C)Nc2nnnn2C1c1ccc(C(F)(F)F)cc1 (configuration not stated)
CCc1cccc(NC(=O)CCNS(=O)(=O)c2cccc3nonc23)c1
O=C(NCc1cccc(Br)c1)c1cnn(-c2ccc(F)cc2)c1-n1cccc1
CC(=O)c1ccc(NC(=O)c2cc(-c3ccc(C)s3)nc3ccccc23)cc1
Cc1cccc(N2CCN(C(=O)CN3C(=O)CSc4c3c(C)nn4-c3ccccc3)CC2)c1C
CCOc1ccc(N2CC(NC(=O)c3cccs3)CC2=O)cc1 (configuration not stated)
CCc1ccc(NC(=O)[C@H](Cc2ccccc2)N2Cc3ccccc3C2=O)cc1
O=C(CSc1nc2c([nH]c3ccccc32)c(=O)n1-c1ccccc1)N1CCc2ccccc21
